# Target: the molecule itself
# Assay: crystal structure; Hfq65 mixed with ATP 1:1 with respect to one subunit; crystal grown in 0.1 M Hepes pH ~7.5, 10% (w/v) PEG-8000, 8% (v/v) ethylene glycol; space group C2, six molecules in the asymmetric unit forming the hexamer
protein,measurement,value
"C-terminally truncated variant of E. coli Hfq (Hfq65), […] (domain or fragment, Hfq (host factor I/Q), Escherichia coli, […] (C-terminally truncated); Crystallised with ATP (1:1 molar ratio per subunit); ATP seen in four of the six R-sites; also called host factor I/Q; source: E. coli strain AM111F' harbouring plasmid pUHfq65, purified (heat-fractionation, HIC, anion-exchange chromatography)) not shown",stoichiometry N,6

# Reference: publication PMC3511402, “Structural and Biochemical Studies on ATP Binding and Hydrolysis by the Escherichia coli RNA Chaperone Hfq” (PLoS ONE, 2012)
